The list shows a part of the results.
Columns and labels:
Assay in all cases: glycan array binding signal (z-score within array); higher = stronger binding
Conditions in all cases: glycan notation: IUPAC condensed, linker removed
[1] = target: Neu5Ac(a2-3)Gal(b1-4)GlcNAc(b1-6)GalNAc
Procedure, shortened: (§1)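 The binding signal is a Z-score computed within each array and averaged over linkers. Arrays of the same protein sequence at different concentrations or buffers were also averaged together. Data originate from 3228 arrays in the Consortium for Functional Glycomics database, kept only where the protein sequence was available.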

[2] = target: Neu5Ac(a2-3)Gal(b1-4)GlcNAc(b1-6)[Gal(b1-3)]GalNAc
Procedure, shortened: as §1

[3] = target: Neu5Ac(a2-3)Gal(b1-4)GlcNAc(b1-6)[Neu5Ac(a2-3)Gal(b1-3)]GalNAc
Procedure, shortened: as §1

[4] = target: Neu5Ac(a2-3)Gal(b1-4)GlcNAc6S
Procedure, shortened: as §1

[5] = target: Neu5Ac(a2-3)Gal(b1-4)[Fuc(a1-3)]GlcNAc
Procedure, shortened: as §1

[6] = target: Neu5Ac(a2-3)Gal(b1-4)[Fuc(a1-3)]GlcNAc(b1-2)Man
Procedure, shortened: as §1

[7] = target: Neu5Ac(a2-3)Gal(b1-4)[Fuc(a1-3)]GlcNAc(b1-3)Gal
Procedure, shortened: as §1

[8] = target: Neu5Ac(a2-3)Gal(b1-4)[Fuc(a1-3)]GlcNAc(b1-3)Gal(b1-4)GlcNAc
Procedure, shortened: as §1

[9] = target: Neu5Ac(a2-3)Gal(b1-4)[Fuc(a1-3)]GlcNAc(b1-3)Gal(b1-4)[Fuc(a1-3)]GlcNAc(b1-3)Gal(b1-4)[Fuc(a1-3)]GlcNAc
Procedure, shortened: as §1

[10] = target: Neu5Ac(a2-3)Gal(b1-4)[Fuc(a1-3)]GlcNAc(b1-3)GalNAc
Procedure, shortened: as §1

[11] = target: Neu5Ac(a2-3)Gal(b1-4)[Fuc(a1-3)]GlcNAc(b1-6)[Gal(b1-3)]GalNAc
Procedure, shortened: as §1

[12] = target: Neu5Ac(a2-3)Gal(b1-4)[Fuc(a1-3)]GlcNAc(b1-6)[Neu5Ac(a2-3)Gal(b1-3)]GalNAc
Procedure, shortened: as §1

[13] = target: Neu5Ac(a2-3)Gal(b1-4)[Fuc(a1-3)]GlcNAc6S
Procedure, shortened: as §1

[14] = target: Neu5Ac(a2-3)Gal6S(b1-4)GlcNAc
Procedure, shortened: as §1

[15] = target: Neu5Ac(a2-3)Gal6S(b1-4)[Fuc(a1-3)]GlcNAc
Procedure, shortened: as §1

Neu5Ac(a2-3)GalNAc = target: Neu5Ac(a2-3)GalNAc
Procedure, shortened: as §1

[16] = target: Neu5Ac(a2-3)GalNAc(b1-4)GlcNAc
Procedure, shortened: as §1

[17] = target: Neu5Ac(a2-3)[GalNAc(b1-4)]Gal(b1-4)Glc
Procedure, shortened: as §1

[18] = target: Neu5Ac(a2-3)[GalNAc(b1-4)]Gal(b1-4)GlcNAc
Procedure, shortened: as §1

[19] = target: Neu5Ac(a2-3)[GalNAc(b1-4)]Gal(b1-4)GlcNAc(b1-3)GalNAc
Procedure, shortened: as §1

[20] = target: Neu5Ac(a2-3)[Neu5Ac(a2-6)]GalNAc
Procedure, shortened: as §1

Neu5Ac(a2-6)Gal = target: Neu5Ac(a2-6)Gal
Procedure, shortened: as §1

[21] = target: Neu5Ac(a2-6)Gal(b1-3)GlcNAc(b1-3)[Gal(b1-4)GlcNAc(b1-6)]Gal(b1-4)Glc
Procedure, shortened: as §1

Neu5Ac(a2-6)Gal(b1-4)Glc = target: Neu5Ac(a2-6)Gal(b1-4)Glc
Procedure, shortened: as §1

[22] = target: Neu5Ac(a2-6)Gal(b1-4)GlcNAc
Procedure, shortened: as §1

[23] = target: Neu5Ac(a2-6)Gal(b1-4)GlcNAc(b1-2)Man
Procedure, shortened: as §1

[24] = target: Neu5Ac(a2-6)Gal(b1-4)GlcNAc(b1-2)Man(a1-3)Man(b1-4)GlcNAc(b1-4)GlcNAc
Procedure, shortened: as §1

[25] = target: Neu5Ac(a2-6)Gal(b1-4)GlcNAc(b1-2)Man(a1-3)[Gal(b1-4)GlcNAc(b1-2)Man(a1-6)]Man(b1-4)GlcNAc(b1-4)GlcNAc
Procedure, shortened: as §1

[26] = target: Neu5Ac(a2-6)Gal(b1-4)GlcNAc(b1-2)Man(a1-3)[GlcNAc(b1-2)Man(a1-6)]Man(b1-4)GlcNAc(b1-4)GlcNAc
Procedure, shortened: as §1

[27] = target: Neu5Ac(a2-6)Gal(b1-4)GlcNAc(b1-2)Man(a1-3)[GlcNAc(b1-4)][Neu5Ac(a2-6)Gal(b1-4)GlcNAc(b1-2)Man(a1-6)]Man(b1-4)GlcNAc(b1-4)GlcNAc
Procedure, shortened: as §1

B1: SialidaseA (Arthrobacter ureafaciens) (protein)
chain: MRSNSTSAPSLVRRAATGVLTCAVSIGLLAGLGLPAQAAPTPPNSPTLPPGSFSETNLAADRTAANFFYRIPALTYLGNDVVLAAWDGRPGSAADAPNPNSIVQRRSTDGGKTWGPVQVIAAGHVADASGPRYGYSDPSYIYDAEANKVFAFFVYSKDQGFGGSQFGNDDADRNVISSAVIESSDAGVTWSQPRLITSVTKPGTSKTNPAAGDVRSNFASSGEGIQLKYGPHKGRLIQQYAGDVRQADGSNKIQAYSVYSDDHGVTWHKGANVGDRMDENKTVELSDGRVLLNSRDNANRGYRKVAVSTDGGATYGPVSQDTELPDPANNGAIARMFPNAAQGSADAKKLIFTNANSKTGRENVSARVSCDDGETWPGVRTIRSGFSAYSTVTRLADGKFGVLYEGNYTDNMPFATFDDAWLNYVCAPLAVPAVNIAPSATQEVPVTVTNQEATTLSGATATVYTPSGWSATTVPVPDVAPGASVTVTVALTAPADASGPRSLNAAFTTADGRVSQFTFTATTPVAPQVGLTITGSAPARDVAANPYQAGDVLGYTLNVKSTANVAANSVPLTGTFDSGFLPPAAPNCRYNNLAAGASYNCTTAKHTITAADMERGYFVPEATFSITSTTTPSLTKTVQFTGAAVALRDGLISADISGARTDVGRDLATRPYAAGELVPYAFTVKNTSPFVEQVVPTAGNFSPFLPAGAGNCRYLSLPAGQSYECATPRHAVTAEEVEQGFFVPDTTWEVSAAGQSTRTYRINGGEVDLLVRDAALSATVVAEWKDADGDRFASAGDPVTFTYTVGNAGNVALTGLEAPDAGISLPFLAPGDTATATREHVLTAADVAGGSLAASAFEATARNGSKEVTATAEGQPLELKVQPAQPSKEPELTVQDLEDQTPPFDLGTAFKYRTGQKVSLAGLEYGQWYYVYLNKTGYRLGWMFPTTGDTVEFILPPEVRNGRDDVVVLDKDGRRVSFDRLQVTPKGEKI
glycan array binding signal (z-score) [1]: -0.046 | glycan array binding signal (z-score) [2]: -0.308 | glycan array binding signal (z-score) [3]: 1.78 | glycan array binding signal (z-score) [4]: 2.24 | glycan array binding signal (z-score) [5]: 0.484 | glycan array binding signal (z-score) [6]: 1.2 | glycan array binding signal (z-score) [7]: 1.35 | glycan array binding signal (z-score) [8]: 2.56 | glycan array binding signal (z-score) [9]: 1.29 | glycan array binding signal (z-score) [10]: 1.91 | glycan array binding signal (z-score) [11]: 0.934 | glycan array binding signal (z-score) [12]: 0.718 | glycan array binding signal (z-score) [13]: 2.04 | glycan array binding signal (z-score) [14]: 2.1 | glycan array binding signal (z-score) [15]: 0.187 | glycan array binding signal (z-score) (Neu5Ac(a2-3)GalNAc): 0.621 | glycan array binding signal (z-score) [16]: 0.302 | glycan array binding signal (z-score) [17]: 1.29 | glycan array binding signal (z-score) [18]: 0.486 | glycan array binding signal (z-score) [19]: 0.725 | glycan array binding signal (z-score) [20]: 1.34 | glycan array binding signal (z-score) (Neu5Ac(a2-6)Gal): 1.04 | glycan array binding signal (z-score) [21]: -0.724 | glycan array binding signal (z-score) (Neu5Ac(a2-6)Gal(b1-4)Glc): 0.53 | glycan array binding signal (z-score) [22]: 1.64 | glycan array binding signal (z-score) [23]: 0.518 | glycan array binding signal (z-score) [24]: 3.4 | glycan array binding signal (z-score) [25]: 0.214 | glycan array binding signal (z-score) [26]: 2.79 | glycan array binding signal (z-score) [27]: 2.08

Source: the supplement of paper PMC8728848
